# Reference: PubChem BioAssay AID624417 (National Center for Advancing Translational Sciences (NCATS), 2012)
# The whole screen tested about 410,000 compounds, of which about 6,400 (1.6%) were called active. The inconclusive results got no clear call from the source; some entries with a clear call stand among them for comparison. Calls follow the shape of the dose curve; as a rule, active = well fitted inhibition curve with a large enough effect; inconclusive = small, poorly fitted or top-dose-only effect; inactive = no such curve, though single readings can be large or run the other way. Potencies of inconclusive entries are left out as doubtful fits.
# Target: Glucagon-like peptide 1 receptor (Homo sapiens) (UniProt P43220)
# Chain of UniProt P43220 (P43220 whole entry, looked up): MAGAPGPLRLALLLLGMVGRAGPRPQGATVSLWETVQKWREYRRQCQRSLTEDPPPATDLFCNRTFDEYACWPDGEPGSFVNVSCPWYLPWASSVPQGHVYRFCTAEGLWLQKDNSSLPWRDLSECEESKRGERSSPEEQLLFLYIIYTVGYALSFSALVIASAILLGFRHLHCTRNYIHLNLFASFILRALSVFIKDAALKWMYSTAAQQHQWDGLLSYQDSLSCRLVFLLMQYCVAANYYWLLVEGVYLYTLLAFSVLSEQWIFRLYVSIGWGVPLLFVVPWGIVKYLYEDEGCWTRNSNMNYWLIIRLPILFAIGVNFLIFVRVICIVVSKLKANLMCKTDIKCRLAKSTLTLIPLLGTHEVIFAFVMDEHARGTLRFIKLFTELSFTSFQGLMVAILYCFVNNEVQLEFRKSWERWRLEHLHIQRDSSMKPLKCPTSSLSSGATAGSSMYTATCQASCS
# Assay: qHTS of GLP-1 Receptor Inverse Agonists (Inhibition Mode); also: nearly all actives have a fitted effect of over 55% in size
# Conditions: HEK293 GLP-1R CRE-luciferase, luminescence, 24 h, GLP-1R form is constitutively active; series mostly up to 38.3 µM
# In short: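 Readout was luciferase luminescence, measured 12 min after detection reagent at room temperature. Beforehand, GLP-1R reporter HEK293 cells had sat 12 h, then received compounds for 24 hr at 37 deg C.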
# Potency is read from the fitted curve at half-maximal effect; tags tell the direction and shape of the fitted curve.
row,SMILES,Potency
1,O=C(Nc1nc2ccccc2[nH]1)c1cccc(S(=O)(=O)N2CCOCC2)c1,inactive
2,CC1(C)CC(/C=C/c2ccccc2)=Nc2ccccc2N1,"inconclusive [inhibitor, single point]"
3,COc1ccc(Cn2cc(C(=O)c3ccc(C)c(C)c3)c(=O)c3ccccc32)cc1,"inconclusive [inhibitor, single point]"
4,Nc1ccccc1OCCOc1ccccc1N,"inconclusive [inhibitor, single point]"
5,CN(C)S(=O)(=O)c1cccc(NC(=S)NCc2ccc3c(c2)OCO3)c1,"inconclusive [inhibitor, single point]"
6,CN1CCC(N(C)C(=O)/C(C#N)=C\c2ccc(OC(F)F)cc2)CC1,"inconclusive [inhibitor, full curve, poor fit]"
7,Cc1cccn2c(=O)c(C(=O)NCCc3ccccc3)cnc12,"inconclusive [inhibitor, partial curve, poor fit]"
8,Cc1c(Br)c([N+](=O)[O-])nn1C(C)C(=O)N1CCc2ccccc2C1 (configuration not stated),"inconclusive [inhibitor, partial curve, poor fit]"
9,Cc1cccc(NC(=O)CCC(=O)N/N=C/c2cc([N+](=O)[O-])ccc2O)c1,"inconclusive [inhibitor, single point]"
10,CC1(Cc2ccc(F)cc2)C(=O)Nc2c(Cl)cccc21 (configuration not stated),"inconclusive [inhibitor, full curve]"
11,CCn1c2ccccc2c2cc(NS(=O)(=O)c3ccccc3C)ccc21,"inconclusive [inhibitor, partial curve, poor fit]"
12,O=C(COc1ccccc1)N/N=C/c1ccc2c(c1)OCO2,"inconclusive [inhibitor, partial curve, poor fit]"
13,CCOc1nc(C#N)nc(N2CCCCC2)n1,"inconclusive [inhibitor, partial curve, poor fit]"
14,Cc1cc(Br)cn2c(Cc3ccccc3)c(-c3ccc(F)cc3)nc12,"inconclusive [inhibitor, partial curve]"
15,COc1cc2c(cc1OC)C(=O)N1[C@H]3c4ccccc4OC[C@@H]3[C@H](c3ccccc3)[C@]1(C)C(=O)N2,"inconclusive [inhibitor, partial curve, poor fit]"
16,CC(CNC(=O)c1nnc(Cc2ccc(F)cc2)o1)c1ccccc1 (configuration not stated),"inconclusive [inhibitor, single point]"
17,COc1cc2ncc(C(=O)c3ccc(C)cc3)c(N3CCCCC3)c2cc1OC,"inconclusive [inhibitor, partial curve, poor fit]"
18,CC(C(=O)Nc1ccccn1)(c1ccccc1)c1ccccc1,"inconclusive [inhibitor, single point]"
19,COc1ccc(Nc2nc(NCc3ccco3)nc(N/N=C/c3ccccc3)n2)cc1,"inconclusive [inhibitor, single point]"

row,SMILES,Potency
1,CC1CCN(S(=O)(=O)c2ccc(NC(=O)Cn3nnc(-c4ccccc4F)n3)cc2)CC1,"inconclusive [inhibitor, partial curve, poor fit]"
2,COc1ccc(-c2nc(SCC(=O)Nc3ccc4c(c3)OCCO4)c(-c3ccc(F)cc3)[nH]2)cc1OC,"inconclusive [inhibitor, partial curve]"
3,O=C(Cc1ccc(-n2c(=O)[nH]c3ccsc3c2=O)cc1)N1CCN(c2ccc(Cl)cc2)CC1,"inconclusive [inhibitor, partial curve, poor fit]"
4,O=C(c1ccc2c(c1)N(Cc1ccc(F)cc1)C(=O)c1ccccc1S2(=O)=O)N1CCN(Cc2ccccc2)CC1,inactive
5,Brc1ccc(OCc2nc(-c3ccccn3)n[nH]2)cc1,"inconclusive [inhibitor, partial curve, poor fit]"
6,Cn1ccc2c(-c3ccc(C(F)(F)F)cc3)cc3c(c21)C1CCC3C1 (configuration not stated),"inconclusive [inhibitor, partial curve, poor fit]"
7,C/C(CC(=O)Nc1ccc(C)c(Cl)c1)=N\NC(=O)c1ccncc1,active: 10 µM
8,CC(C)(C)OC(=O)[C@H]1[C@H](c2ccc([N+](=O)[O-])cc2)C2(C(=O)c3ccccc3C2=O)C2c3ccccc3C=NN21 (some centres not stated),"inconclusive [inhibitor, single point]"
9,C[C@@H]1CN([C@H](C)CO)C(=O)c2cc(NC(=O)Nc3ccc(F)cc3)ccc2O[C@@H](C)CCCCO[C@H]1CN(C)S(=O)(=O)c1cccs1,"inconclusive [inhibitor, partial curve, poor fit]"
10,Cc1[nH]c2ccccc2c1C1=CC(=O)C=CC1=O,"inconclusive [inhibitor, single point]"
11,Cn1c2ccccc2c2cnn(CC(=O)N3CCN(c4cccc(C(F)(F)F)c4)CC3)c(=O)c21,inactive
12,CCn1cc(/C=N/NC(=O)c2ccc(C#N)cc2F)c2ccccc21,inactive
13,Cc1ccc(S(=O)(=O)Nc2ccc3c(c2)CCC3)cc1C,"inconclusive [inhibitor, partial curve, poor fit]"
14,O=C(CSc1nc2ccccc2s1)NCCOc1ccc(Cl)cc1,"inconclusive [inhibitor, single point]"
15,Cc1ccc(CNC(=O)CN(c2cccc(C)c2C)S(=O)(=O)c2ccccc2)cc1,"inconclusive [inhibitor, partial curve, poor fit]"
16,CCC(CC)C(=O)Nc1ccc2nc(SCC(=O)N3CCc4ccccc43)sc2c1,"inconclusive [inhibitor, full curve]"
17,NS(=O)(=O)c1cc(C(=O)NCC2CCCCC2)ccc1Cl,"inconclusive [inhibitor, partial curve, poor fit]"
18,O=C(CCn1c2c(c3ccccc31)CCCC2)NNC(=O)c1ccc([N+](=O)[O-])cc1,"inconclusive [inhibitor, single point]"
